Reference: patent US20220162314A1 (ASHER BIOTHERAPEUTICS, published 2022)

B1: xhCD8v14-IL2m4, format A (other)
light chain: EIVLTQSPGTLSLSPGERATLS[skipping about 80 residues][skipping about 120 residues]
heavy chain with IL2 fusion: EVQLVESGGGLVQPGGSLRLSCAASGFTFSSYAMSWVRQAPGKGLEWVSDISYAGGSTAYADSVKGRFTISRDNAKNSLYLQMNSLRAEDTAVYYCARSNAYAWDDALDIWGQGTMVTVSSASTKGPSVFPLAPSSKSTSGGTAALGCLVKDYFPEPVTVSWNSGALTSGVHTFPAVLQSSGLYSLSSVVTVPSSSLGTQTYICNVNHKPSNTKVDKKVEPKSCDKTHTCPPCPAPEAAGAPSVFLFPPKPKDTLMISRTPEVTCVVVDVSHEDPEVKFNWYVDGVEVHNAKTKPREEQYNSTYRVVSVLTVLHQDWLNGKEYKCKVSNKALPAPIEKTISKAKGQPREPQVYTLPPCREEMTKNQVSLSCAVKGFYPSDIAVEWESNGQPENNYKTTPPVLDSDGSFFLVSKLTVDKSRWQQGNVFSCSVMHEALHNHYTQKSLSLSPGSGGGGSGGGGSGGGGSAPTSSSTKKTQLQLEELLLDLQMILNGINNYKNPKLTEMLTAKFYMPKKATELKHLQCLEEELKPLEEVLNLAQSKNFHLRPRDLISNINVIVLELKGSETTFMCEYADETATIVEFLNRWITFAQSIISTLT
heavy chain without IL2 fusion: EVQLVESGGGLVQPGGSLRLSCAASGFTFSSYAMSWVRQAPGKGLEWVSDISYAGGSTAYADSVKGRFTISRDNAKNSLYLQMNSLRAEDTAVYYCARSNAYAWDDALDIWGQGTMVTVSSASTKGPSVFPLAPSSKSTSGGTAALGCLVKDYFPEPVTVSWNSGALTSGVHTFPAVLQSSGLYSLSSVVTVPSSSLGTQTYICNVNHKPSNTKVDKKVEPKSCDKTHTCPPCPAPEAAGAPSVFLFPPKPKDTLMISRTPEVTCVVVDVSHEDPEVKFNWYVDGVEVHNAKTKPREEQYNSTYRVVSVLTVLHQDWLNGKEYKCKVSNKALPAPIEKTISKAKGQPREPQVCTLPPSREEMTKNQVSLWCLVKGFYPSDIAVEWESNGQPENNYKTTPPVLDSDGSFFLYSKLTVDKSRWQQGNVFSCSVMHEALHNHYTQKSLSLSPG
B2: xhCD8v11-IL2m4, format A (other)
light chain: EIVLTQSPGTLSLSPGERATLS[skipping about 80 residues][skipping about 120 residues]
heavy chain with IL2 fusion: B1 heavy chain with IL2 fusion with S52T, M116L
heavy chain without IL2 fusion: B1 heavy chain without IL2 fusion with S52T, M116L
B3: xhCD8v14-IL2m1, format A (other)
light chain: EIVLTQSPGTLSLSPGERATLS[skipping about 80 residues][skipping about 120 residues]
heavy chain with IL2 fusion: B1 heavy chain with IL2 fusion with E482H, N554A
heavy chain without IL2 fusion: B1 heavy chain without IL2 fusion

The binders below were run against T1, CD8 on human CD8+ T cells (CD3+CD8a+CD8b+ cells of hPBMCs) (human, UniProt P01732 22-235; P10966 22-210) (assay: flow cytometry binding to CD8+ T cells; ratio of the EC50 of format D to the EC50 of format A drawn as a bar on a log axis).
T1 construct: whole, on cells; also called CD8ab+ T cells
T1 sequence (P01732 22-235, chain 1 of 2): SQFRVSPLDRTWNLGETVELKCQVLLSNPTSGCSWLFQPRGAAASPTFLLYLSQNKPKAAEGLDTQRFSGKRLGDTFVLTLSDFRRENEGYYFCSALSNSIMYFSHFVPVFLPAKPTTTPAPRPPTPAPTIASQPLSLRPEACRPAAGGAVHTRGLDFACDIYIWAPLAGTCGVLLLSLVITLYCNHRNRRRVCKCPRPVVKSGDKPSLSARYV
T1 sequence (P10966 22-210, chain 2 of 2, further chain): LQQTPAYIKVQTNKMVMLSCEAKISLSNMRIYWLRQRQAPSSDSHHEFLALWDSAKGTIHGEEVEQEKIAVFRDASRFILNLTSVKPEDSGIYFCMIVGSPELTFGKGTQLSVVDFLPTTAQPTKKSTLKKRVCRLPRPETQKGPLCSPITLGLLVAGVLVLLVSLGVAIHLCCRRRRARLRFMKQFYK

Binder	binding result
B1	binds
B2	binds
B3	binds

Positions count from the first letter of the chain named.
